# Reference: PubChem BioAssay AID488969 (Vanderbilt High Throughput Screening Facility, 2010)
# In all, about 110,000 compounds were measured (“z-score”: median about -0.1, highest 2% from about 2 on). The list shows a part of the results. The source made the active and inactive calls.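 The calls were made as follows: active = z-score in the third read window above 3 or below -3; inactive = the rest.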
# Target: Metabotropic glutamate receptor 8 (Rattus norvegicus) (UniProt P70579)
# Assay: rat mGluR8 modulators via GIRK flux, primary screen, cell-based, thallium flux, HTS (AID 488969)
# Settings: HEK293 rat mGluR8, GIRK (G protein-gated inwardly rectifying potassium channel) thallium flux, FluoZin2; at 10 µM; stronger effect = higher value; submaximal glutamate (EC20) added with thallium
# UniProt P70579, sequence (P70579 whole entry, looked up): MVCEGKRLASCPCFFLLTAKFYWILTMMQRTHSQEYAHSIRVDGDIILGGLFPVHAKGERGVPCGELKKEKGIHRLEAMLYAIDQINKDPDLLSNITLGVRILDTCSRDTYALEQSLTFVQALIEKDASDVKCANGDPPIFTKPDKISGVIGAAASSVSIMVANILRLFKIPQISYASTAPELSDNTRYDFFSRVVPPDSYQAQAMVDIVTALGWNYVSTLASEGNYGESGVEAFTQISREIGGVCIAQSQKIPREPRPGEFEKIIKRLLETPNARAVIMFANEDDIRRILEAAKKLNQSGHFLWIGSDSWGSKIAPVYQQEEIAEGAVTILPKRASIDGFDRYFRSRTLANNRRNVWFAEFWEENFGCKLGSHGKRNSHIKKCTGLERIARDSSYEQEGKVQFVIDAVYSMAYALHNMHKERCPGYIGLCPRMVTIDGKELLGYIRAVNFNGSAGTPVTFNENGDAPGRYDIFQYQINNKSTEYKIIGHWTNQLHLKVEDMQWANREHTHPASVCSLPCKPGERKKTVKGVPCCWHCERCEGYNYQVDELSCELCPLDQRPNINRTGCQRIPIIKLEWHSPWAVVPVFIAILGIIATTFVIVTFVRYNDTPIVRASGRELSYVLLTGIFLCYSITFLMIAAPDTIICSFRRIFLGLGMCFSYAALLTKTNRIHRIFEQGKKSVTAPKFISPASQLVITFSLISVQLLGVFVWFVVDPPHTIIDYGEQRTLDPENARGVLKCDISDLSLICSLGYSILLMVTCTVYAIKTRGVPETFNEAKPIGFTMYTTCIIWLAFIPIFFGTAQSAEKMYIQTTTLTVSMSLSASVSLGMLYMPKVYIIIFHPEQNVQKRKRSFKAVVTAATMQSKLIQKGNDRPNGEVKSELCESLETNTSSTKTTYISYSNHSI
row,SMILES,z-score
1,CCOC(=O)c1sc(NC(=O)Nc2ccc(Cl)cc2)nc1C,-0.204
2,CCCCOc1ccc(C(=O)OCC(=O)Nc2cc(C)c(C)cc2[N+](=O)[O-])cc1,-0.346
3,O=C1NCCCC1C(=O)NCCNC(=O)C(F)(F)F (configuration not stated),-0.397
4,COc1ccc(OC)c(NC(=O)CSc2nnc(CNC(=O)c3ccco3)o2)c1,-0.27
5,Cc1onc(-c2ccccc2)c1C(=O)NCC1CCCO1 (configuration not stated),0.327
6,CCOc1ccc2[nH]cc(C(=O)N3CCN(CC)CC3)c(=O)c2c1,-0.0379
7,C/C(N)=C(/C#N)C(=O)CN1CCCCC1,0.678
8,Cc1ccc(C)c(NC(=O)c2sc(Cl)nc2C)c1,-0.149
9,CC1=CS(=O)(=O)CC1Sc1nc2ccccc2[nH]1 (configuration not stated),-0.0966
10,CCn1c2c(c3cc(Br)ccc31)CCC/C2=N\O,-0.383
11,COCCCNC(=O)CN1C(=O)/C(=C\c2ccc(C)cc2)Sc2ccccc21,-0.0454
12,C/C(=N/NC(=O)c1ccc(NC(=O)c2ccc(F)cc2)cc1)c1ccccc1,0.427
13,CC(=O)NCCNC(=O)CNC(=O)c1ccc(Cl)cc1,-0.109
14,N#Cc1nc(COc2ccc(Br)cc2)oc1N1CCCCCC1,-0.364
15,COc1cc(NS(=O)(=O)c2cc(C)ccc2OC)c(OC)cc1Cl,0.494
16,CCCCn1c(CN2CCN(CCO)CC2)nc2ccccc21,0.204
17,COc1ccc(N(CC(=O)NCCSCc2c(F)cccc2Cl)S(C)(=O)=O)cc1OC,-0.0849
18,CCCC(=O)Nc1ccc(N2CCCCC2)cc1,0.0444
19,CC(C)Oc1ccc(C2CNC(=O)C2)cc1 (configuration not stated),-0.236
20,c1ccc(-c2ccc(-n3ccnc3)cc2)cc1,-0.146
21,O=C(NNc1nc2ccccc2s1)c1ccccc1F,1.11
22,O=C(NC(C(=O)O)c1ccccc1)c1ccccc1 (configuration not stated),0.488
23,CN(C)c1ccc(NC(=O)c2sc(SCC(=O)Nc3nccs3)nc2N)cc1,-0.189
24,CCOc1ccc(NC(=O)CN(C)CC(=O)Nc2cccc(Cl)c2C)cc1OCC,-0.618

row,SMILES,z-score
1,Cc1ccccc1C(=O)Nc1ccc(-c2nc3ccc(C(=O)c4ccccc4)cc3[nH]2)cc1,-0.182
2,CSc1cccc(NC(=O)CCCOc2ccccc2)c1,1.7
3,CC(=O)c1cccc(NC(=O)Nc2c(C)nn(C)c2C)c1,0.31
4,CCN(CC)S(=O)(=O)c1ccc2c(c1)nc(CCC(=O)Nc1ccc3c(c1)OCO3)n2C,-0.132
5,CCCOc1ccc(N2C(=O)C3ON(c4ccccc4)C(CCC)C3C2=O)cc1 (configuration not stated),0.0585
6,Cc1cccc(CSc2ncnc3c2cnn3Cc2ccccc2)c1,-0.46
7,Cc1ccc(OCC(O)CN2CCN(CC(O)COC(C)C)CC2)c(C(C)(C)C)c1 (configuration not stated),1.54
8,O=C(N/N=C/c1ccc(O)cc1)c1ccc(NC(=O)c2ccccc2Br)cc1,-0.102
9,O=C(COC(=O)c1ccco1)Nc1ccc(Br)cc1,1.83
10,CCCc1nnc(NC(=O)c2ccc(N3C(=O)C4C5C=CC(C5)C4C3=O)cc2)s1 (configuration not stated),-0.362
11,CCOC(=O)C1=C(CSc2nc(-c3ccncc3)ccc2C#N)OC(N)=C(C#N)C1c1ccc(OC)cc1 (configuration not stated),-0.202
12,COc1ccc(C)cc1S(=O)(=O)N(CC(=O)Nc1cccc([N+](=O)[O-])c1)c1ccc(C)c(C)c1,-0.702
13,CCCC(=O)Nc1ccc(NC(=O)c2cccc(OC)c2)nc1,2.18
14,O=C(CSc1nc2ccccc2o1)Nc1ccccc1N1CCCCCC1,-0.0665
15,C=CCNC(=O)NC(=O)COC(=O)COc1ccc(Br)cc1F,-1.04
16,O=C(CNCCO)N1CCc2ccccc21,0.128
17,Cc1cc(C)n(-c2ccc(C(=O)OCC(=O)Nc3cc(Cl)ccc3[N+](=O)[O-])cc2)n1,-0.0754
18,CCOC(=O)c1c(C)n(C)c2ccc(O)c(CN(C)C)c12,2
19,CC1CCCCC1NC(=O)COn1nnc2ccc(Cl)cc21 (configuration not stated),-0.171
20,O=C(CNC(=O)c1ccc(F)cc1)N/N=C/c1cc(Br)ccc1OCc1ccccc1,0.0734
21,C=CCn1c(SCN2C(=O)c3ccccc3C2=O)nc2ccc(Cl)cc2c1=O,active: 12.6
22,COc1cc(C(=O)Nc2ccc(O)cc2)ccc1OC(C)=O,-0.00966
23,COc1cccc(C(=O)Nn2c(-c3cccs3)nc3ccccc3c2=O)c1OC,-0.339
24,CC(C)(C)NC(=O)CC(c1ccccc1)c1ccccc1O (configuration not stated),-0.408

row,SMILES,z-score
1,COc1cccc(CSc2nnc(C(F)(F)F)n2Cc2ccc(F)cc2)c1,-0.542
2,CCCCN(CCCC)S(=O)(=O)c1ccc(C(=O)Nc2nnc(COC)o2)cc1,1.03
3,Cc1cc2ncn(CCCCOc3ccccc3)c2cc1C,-0.187
4,O=C(NNC(=O)c1ccccc1Br)c1ccc(SCC2CCCO2)c([N+](=O)[O-])c1 (configuration not stated),0.0209
5,Cc1cc(C)nc(NCCCc2ccccc2)n1,0.39
6,C=CCc1ccc(OCCCCN2CCC(C)CC2)c(OC)c1,0.37
7,COCCNC(=O)C1c2cc(OC)c(OC)cc2C(=O)N(C)C1c1cccnc1 (configuration not stated),0.589
8,CCOC(=O)/C(N=Nc1sc(C(=O)OCC)c(C)c1C(=O)OCC)=C(\C)O,-0.334
9,CC1CCN(CCNC(=O)C2CCCN(S(=O)(=O)c3cccc4nonc34)C2)CC1 (configuration not stated),0.132
10,O=[N+]([O-])c1ccc(N/N=C\c2cccn2-c2ccccc2)nc1,-0.00582
11,O=C(CCCc1ccccc1)Nc1cccnc1,0.0742
12,COc1ccc(OC)c(NC(=O)/C=C/c2ccccc2[N+](=O)[O-])c1,-0.104
13,CCNc1nc(NC(C)C)nc(N(C#N)CCOc2ccc(Cl)cc2Cl)n1,-0.62
14,COc1ccc(NS(=O)(=O)c2cccc(NC(=O)CCS(=O)(=O)c3ccccc3)c2)cc1,-0.266
15,CCOc1ccc(OCc2ccc(C(=O)O)o2)cc1,-1.56
16,CCC(C)N=CC1=C(O)C(C(=O)OC)C(C)(C)CC1=O (configuration not stated),-0.129
17,CC1(C)CC(=O)C(C=NC(CCC(N)=O)C(=O)O)=C(O)C1 (configuration not stated),1.69
18,CCOc1ccc(Cl)cc1S(=O)(=O)n1cnc2cc(C)c(C)cc21,0.0185
19,COc1ccc(S(=O)(=O)N2CCN(c3c(C)cccc3C)CC2)cc1OC,-0.315
20,CCCCOP(=O)(c1ccc(N(C)C)cc1)C(O)c1ccncc1 (configuration not stated),-0.0443
21,COc1cccc(OCC(=O)Nc2ccccc2C(N)=O)c1,0.418
22,O=C(Cn1c(-c2ccccn2)nc2ccccc21)NCCN1CCOCC1,0.462
23,COc1ccccc1OCC(=O)Nc1cccc(-c2nc3ccccc3o2)c1,-0.173
24,CCOC(=O)C1=NN(C(=O)Nc2ccc(OC)cc2)C2C(=O)N(c3cccc(C(F)(F)F)c3)C(=O)C12 (configuration not stated),-0.158
